Z-score data for 73 molecules are collected here from PubChem BioAssay AID488969 (Vanderbilt High Throughput Screening Facility, 2010).

Over roughly 110,000 compounds, “z-score” has its median near -0.1; the highest 2% begin near 2. The list shows a part of the results. Activity calls are given as the source filed them.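 How the source made its calls: active means z-score in the third read window above 3 or below -3; inactive means the rest.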

The target in the assay is Metabotropic glutamate receptor 8 (Rattus norvegicus) (UniProt P70579). In words: mGluR8 Gi/Go-coupled signaling modulation – cell-based, rat, thallium flux, HTS, primary screen (AID 488969). The note with it: HEK293 rat mGluR8, GIRK (G protein-gated inwardly rectifying potassium channel) thallium flux, FluoZin2; at 10 µM; stronger effect = higher value; submaximal glutamate (EC20) added with thallium.
UniProt P70579, sequence (P70579 whole entry, looked up): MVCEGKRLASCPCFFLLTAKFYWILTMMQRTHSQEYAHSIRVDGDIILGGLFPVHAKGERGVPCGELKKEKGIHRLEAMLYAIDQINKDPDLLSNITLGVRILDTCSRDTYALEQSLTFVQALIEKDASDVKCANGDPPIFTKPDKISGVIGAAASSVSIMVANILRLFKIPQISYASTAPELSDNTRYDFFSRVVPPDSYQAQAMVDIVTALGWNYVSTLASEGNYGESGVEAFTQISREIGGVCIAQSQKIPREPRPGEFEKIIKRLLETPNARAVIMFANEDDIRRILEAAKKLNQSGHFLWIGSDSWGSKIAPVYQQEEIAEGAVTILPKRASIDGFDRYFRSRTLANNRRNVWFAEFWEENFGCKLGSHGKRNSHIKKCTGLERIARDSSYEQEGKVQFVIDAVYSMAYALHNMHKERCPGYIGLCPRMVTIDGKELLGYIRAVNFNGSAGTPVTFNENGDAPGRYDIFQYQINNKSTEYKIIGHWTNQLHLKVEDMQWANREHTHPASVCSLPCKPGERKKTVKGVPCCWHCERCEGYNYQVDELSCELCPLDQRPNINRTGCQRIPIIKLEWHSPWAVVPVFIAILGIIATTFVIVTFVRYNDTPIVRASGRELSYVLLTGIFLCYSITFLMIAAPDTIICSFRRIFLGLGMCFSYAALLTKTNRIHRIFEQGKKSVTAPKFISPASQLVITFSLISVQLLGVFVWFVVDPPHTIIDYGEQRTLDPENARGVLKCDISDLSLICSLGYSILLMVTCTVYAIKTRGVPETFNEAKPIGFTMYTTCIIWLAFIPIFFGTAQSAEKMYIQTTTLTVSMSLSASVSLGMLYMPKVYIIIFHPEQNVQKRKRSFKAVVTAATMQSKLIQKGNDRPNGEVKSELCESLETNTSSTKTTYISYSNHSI
For the molecule `COc1ccc(-c2nc(C#N)c(NCCCN(C)C)o2)cc1OC`, the z-score was active: 11.2.
`COc1ccc(C)cc1S(=O)(=O)Nc1cc(Cl)ccc1Cl` registered a z-score of 0.703.
The result for `Cc1ccc(C2C(C#N)C(C#N)N3CCCN23)cc1` (stereo not drawn) reads -0.161.
`Cc1ccc(OC(=O)c2ccc(S(=O)(=O)N(C)C)cc2)c(-n2nc3ccccc3n2)c1` returned a z-score of -0.147.
The molecule `Cc1ccc(N2CC(C(=O)Nc3ccc4c(c3)OCO4)CC2=O)cc1` (stereo not drawn) registered a z-score of 0.373.
With `O=[N+]([O-])c1ccc(CSc2nc3ccccc3o2)cc1` the figure was -0.0485; with `CCn1nnnc1-c1ccc(OC)c(S(=O)(=O)Nc2ccc(C)c(C)c2)c1`, -0.224.
With `CCCc1ccc(Oc2cc(Cl)nc(N)n2)cc1` the figure was -0.135; with `CN1CCN(Cc2nc3ccccc3c(=O)n2Cc2nc(-c3ccccc3F)cs2)CC1`, -1.84.
`O=C1CCCN1CN1CCCCC1` returned a z-score of 0.661.
With `CCOc1ccccc1Nc1nc(N)nc(CSc2nncn2C)n1` the figure was 0.0367.
With `COC(=O)/C=C1\OC(c2ccccc2)=CC1=O` the figure was -0.0673; with `CN(c1ccccc1)S(=O)(=O)c1ccc(NC(=S)NC(=O)c2ccccc2)cc1`, active: 3.04.
With `CCC(CO)[n+]1c(C)cc(/C=C2\Sc3ccccc3N2Cc2ccccc2)cc1C` (stereo not drawn) the figure was -0.628; with `COC(=O)c1ccc(COc2nc(C)cc(C)c2C#N)o1`, -0.603; with `CCc1nc(SCC(=O)NCCc2ccccc2)n[nH]1`, 0.0579.
Take `c1ccc(C2NCCn3cccc32)cc1` (stereo not drawn): the z-score was 0.437.
Turning to `CN1CCc2c(c3ccccc3n2C)C1`, the z-score came out at 0.14.
The result for `C#CCn1c(=NC(=O)c2ccc(Br)s2)sc2cc(NC(C)=O)ccc21` reads 0.137.
In turn, `O=C(NCc1cccs1)Nc1ccc2c(c1)OCO2` gave a z-score of -0.138.
The result for `CCc1ccccc1NC(=O)c1cnccn1` reads -0.367; that for `Cc1nn(C(=O)C2CC2)c(C)c1Sc1ccc(Cl)cc1`, -0.0405; that for `CCOC(=O)n1c(=O)n(Cc2c(Cl)cccc2Cl)c2ccccc21`, -0.406.
With `O=C(CSc1nnc(CNC(=O)C23CC4CC(CC(C4)C2)C3)n1-c1ccc(F)cc1)Nc1ccccc1` the figure was -0.269; with `COC(=O)c1ccc(Cn2cc(Cl)cn2)cc1`, -0.284.
`c1ccc(OCc2nc3ccccc3[nH]2)cc1`: the z-score was found to be 0.0147.
With `C=CCNC(=O)CSc1cc([N+](=O)[O-])cc(S(=O)(=O)Cc2ccccc2)c1` the figure was 0.665; with `Cc1ccc(S(=O)(=O)N(C)Cc2cc3ccccc3[nH]c2=O)cc1`, -0.0752.
The result for `CCn1nnc(-c2ccccc2NC(=O)c2ccc(-n3cnnn3)cc2)n1` reads 0.288; that for `O=C(CSc1ncnc2scc(-c3ccccc3)c12)N1CCN(c2ccccc2F)CC1`, -0.245.
The result for `COC(=O)c1ccsc1NC(=O)CSc1nnnn1-c1ccccc1SC` reads 0.584; that for `C/C(CCc1ccc2c(c1)OCO2)=N\N=C(/N)SC1CC(=O)N(c2ccc(Cl)cc2)C1=O` (stereo not drawn), -0.0878; that for `O=C(CSc1nc2c(sc3ccccc32)c(=O)n1-c1ccccc1)NCc1ccco1`, -0.14.
Molecule `Cc1ccc(-n2c(CCC(=O)O)ccc2-c2cccs2)cc1C` showed a z-score of -0.18.
With `Cc1ccc(/C=N/NC(=O)c2ccco2)s1`, the z-score is -0.217.
The result for `Cc1cc(C)c(C)c(S(=O)(=O)NNC(=O)c2cccc(S(=O)(=O)N3CCOCC3)c2)c1C` reads -0.174.
With `Cc1cc(N2CCCCC2)n2ncc(-c3ccccc3)c2n1` the figure was -0.231.
Molecule `CCN1CCN(C(=O)Cn2c(=O)sc3ccccc32)CC1` displayed a z-score of -0.472.
With `Cc1sc2ncnc(N(C)Cc3cccs3)c2c1C` the figure was -2.37; with `N#Cc1ccccc1NCc1ccccc1`, -0.55; with `CCOC(=O)N/N=C\C=C\c1ccc2c(c1)OCO2`, -0.166.
Regarding `O=C(CCCOc1ccc(Cl)cc1Cl)NNC(=O)c1ccc(NC(=O)c2ccccc2)cc1`, the z-score was -0.0338.
As for `O=C(Nc1ccccc1OC(F)F)c1cc2c(s1)CCC2`, the z-score stood at 0.635.
With `Cc1cc(C)nc(SCc2nnc(SCC(N)=O)n2Cc2ccco2)n1` the figure was -0.127; with `COc1ccc(CN2CC(C(=O)NCCCN3CCOCC3)CC2=O)cc1` (stereo not drawn), 0.952.
With `O=C(O)CC(Cn1cnnn1)c1ccccc1` (stereo not drawn), the z-score is -0.637.
With `Cc1c(C(=S)Nc2ccccc2)cnn1-c1ccccc1` the figure was -0.398.
With `Cc1ccc(S(=O)(=O)n2nc(OC(=O)C(C)(C)C)cc2N)cc1` the figure was 0.349; with `Cc1ccc(C2CN(c3ccccc3)CC2C(=O)c2ccc(F)cc2)cc1` (stereo not drawn), -0.147.
With `CCOc1ccccc1Nc1nc2ccccc2[nH]1` the figure was 0.0899; with `O=C(Nc1ccc2nc3n(c(=O)c2c1)CCCC3)c1cccc([N+](=O)[O-])c1`, -0.5.
In turn, `O=C(NNC(=O)c1ccc([N+](=O)[O-])o1)c1ccccc1` registered a z-score of 0.454.
With `CS(=O)(=O)N1CCN(c2nc3ccccc3s2)CC1` the figure was -0.163; with `O=C(NCc1cccs1)C1CCN(C(=O)NCc2ccccc2)CC1`, -0.0865; with `Cc1ccc(SCCNC(=O)c2ccccc2)cc1`, -0.743.
With `N#Cc1ccccc1Sc1ccccc1C(=O)Nc1ccc(Br)cc1` the figure was -0.0649; with `CCC(=O)NC(c1ccccc1OC)c1ccc2cccnc2c1O` (stereo not drawn), 0.035.
The result for `Cc1ccc(C(=O)Nc2ccon2)cc1S(=O)(=O)N1CCCCCC1` reads -0.109; that for `Cc1cccc(NCC(=O)N/N=C\c2cccc(Oc3ccccc3)c2)c1`, -0.0128; that for `N#Cc1cc(Oc2ccc3ccccc3c2)c(-n2nnc3ccccc32)cc1C#N`, -0.0816.
Molecule `O=C(Nc1ccc2c(c1)OCCO2)C1CCN(S(=O)(=O)c2ccc3c(c2)OCCO3)CC1` showed a z-score of -0.0861.
With `CSCC[C@H](NC(=O)OC(C)(C)C)c1nnc(SCC(=O)Nc2ccc(C)cc2C)o1` the figure was -1.24; with `Cc1cc(NC(=O)c2c(Cl)c(C)nn2C)no1`, -0.00215; with `CCOC(=O)c1cc(NC(=O)SCC(=O)O)c(C)nc1C`, -0.394.
The result for `CC1=C(C(=O)N2CCc3ccccc32)C2(CCC(C)CC2)OC1=O` (stereo not drawn) reads -1.29.
The result for `Cc1cccc(N/C(N)=N/c2nc(C(F)(F)F)cc(=O)[nH]2)c1C` reads -0.582.
In turn, `COc1cccc(CNC(=S)NC2CCCC2)c1` yielded a z-score of 0.138.
The molecule `Cc1cc2nc(-c3ccc(SCC(=O)Nc4nccs4)nc3)[nH]c2cc1C` registered a z-score of 0.000459.
The result for `COc1ccc(CCN2C(=O)C3C4CCC(C4=C(C)C)C3C2=O)cc1OC` (stereo not drawn) reads 0.225; that for `Cc1nn(-c2ccccc2)c(Cl)c1/C=C1\SC(=S)NC1=O`, -0.842.
With `O=C(/C=C/c1cccs1)c1ccc(NC(=O)c2ccccc2F)cc1` the figure was 0.039; with `CCN1CCN(Cc2c(O)ccc3c2O/C(=C\C=C\c2ccccc2)C3=O)CC1`, -2.09.
On to `CNC(=O)Cn1nc(-c2ccc(C)c(S(=O)(=O)N(C)C)c2)c2ccccc2c1=O`, for which the z-score is -0.177.
